Data reported in PubChem BioAssay AID624417 (National Center for Advancing Translational Sciences (NCATS), 2012).
The whole screen tested about 410,000 compounds, of which about 6,400 (1.6%) were called active. The shares of active, inactive and inconclusive entries below differ from those in the screen. The call rests on the fitted dose curve; in most records, active means well fitted inhibition curve with a large enough effect; inconclusive means small, poorly fitted or top-dose-only effect; inactive means no such curve, though single readings can be large or run the other way. Where the call is inconclusive, the potency comes from a doubtful curve fit.

Biological target: Glucagon-like peptide 1 receptor (Homo sapiens) (UniProt P43220)
Test: qHTS of GLP-1 Receptor Inverse Agonists (Inhibition Mode); further: nearly all actives have a fitted effect of over 55% in size
Settings: HEK293 GLP-1R CRE-luciferase, luminescence, 24 h, GLP-1R form is constitutively active; activity change, negative = inhibition: at 38.3 µM (top of the series) unless noted
How it was run: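 Cells are plated, allowed 12 hours at 37 deg C, then treated with compounds for 24 hr before luciferase detection reagent is added and luminescence is read after 12 min at room temperature. The HEK293 line carries constitutively active GLP-1R with a cAMP-responsive reporter.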
On the % scale 0 is the no-effect control and ±100 the full control effect; potency means the concentration at half of the fitted maximal effect; tags describe the fitted curve by direction and shape.

Sequence of UniProt P43220 (P43220 whole entry, looked up): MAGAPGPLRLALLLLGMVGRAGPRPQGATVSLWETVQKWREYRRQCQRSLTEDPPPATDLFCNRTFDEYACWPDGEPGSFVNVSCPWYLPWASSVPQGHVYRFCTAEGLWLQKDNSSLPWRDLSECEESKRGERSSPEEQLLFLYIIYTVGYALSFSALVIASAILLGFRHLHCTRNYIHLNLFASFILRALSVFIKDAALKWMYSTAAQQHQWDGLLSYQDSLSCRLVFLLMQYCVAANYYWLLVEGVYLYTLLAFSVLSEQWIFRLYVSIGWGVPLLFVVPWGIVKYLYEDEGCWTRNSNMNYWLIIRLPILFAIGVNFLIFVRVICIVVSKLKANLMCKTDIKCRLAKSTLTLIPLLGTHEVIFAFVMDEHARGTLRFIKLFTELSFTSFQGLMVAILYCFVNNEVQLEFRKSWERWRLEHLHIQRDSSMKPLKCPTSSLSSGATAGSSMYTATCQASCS

Row | SMILES | Potency | activity change, negative = inhibition
1 | COc1cc(OC)cc(C(=O)NCCSc2c[nH]c3ccccc23)c1 | inconclusive: 31.6 µM [inhibitor, single point] | –
2 | COc1cc2c(cc1NC(=O)CSc1nnc(Cc3cccs3)n1C)oc1ccccc12 | inconclusive: 12.6 µM [inhibitor, single point] | –
3 | COC(=O)/N=C(/Cc1ccc(OC)cc1)c1ccc(OC)cc1 | inconclusive: 7.08 µM [inhibitor, partial curve, poor fit] | –
4 | O=C(Cn1cnc2c(oc3ccccc32)c1=O)c1ccccc1 | inactive | –
5 | CCc1nc2ccc(C(=O)Nc3cccc(OC)c3)cn2c1N(C)Cc1ccc(OC)cc1 | inconclusive: 22.4 µM [inhibitor, single point] | –
6 | CCN(CC)S(=O)(=O)c1ccc(N2CCN(CCOc3ccc(OC)cc3)CC2)nc1 | inconclusive: 28.2 µM [inhibitor, single point] | –
7 | COc1cc(NC(=O)C(C)Oc2ccccc2)c(OC)cc1NC(=O)c1ccccc1 (stereo not given) | inconclusive: 17.8 µM [inhibitor, partial curve, poor fit] | –
8 | OC(c1ccccc1)(c1nc(/C=C/c2ccccc2)cs1)C(F)(F)F (stereo not given) | inconclusive: 12.6 µM [inhibitor, single point] | –
9 | COc1cc(/C=N/NC(=O)c2cc3ccccc3cc2O)ccc1OCCN1CCCCC1 | inactive | –
10 | Cc1ccc2nc(-c3ccccn3)[nH]c2c1 | inconclusive: 10 µM [inhibitor, partial curve, poor fit] | –
11 | Cc1nn2c(N3CCCC3)cc(C(C)C)nc2c1-c1ccccc1 | inactive | –
12 | O=[N+]([O-])c1cccc(-c2n[nH]c(=S)n2-c2ccccc2)c1 | inactive | –
13 | Cc1ccc(O)c(NC(=O)C2CCCN2C(=O)OCc2ccccc2)c1 (stereo not given) | inconclusive: 8.91 µM [inhibitor, partial curve, poor fit] | –
14 | Cc1ccc(NC(=O)NCCOCCn2c(=O)oc3ccccc32)cc1C | inconclusive: 2 µM [inhibitor, partial curve, poor fit] | –
15 | CCN(CC)S(=O)(=O)c1cccc(NC(=O)c2cccc(S(=O)(=O)N3CCCC3)c2)c1 | inconclusive: 8.91 µM [inhibitor, single point] | –
16 | CC(C)CC[n+]1ccn(-c2nc3ccccc3nc2[N-]S(=O)(=O)c2ccc(Cl)cc2)c1 | inconclusive: 1.26 µM [inhibitor, partial curve, poor fit] | –
17 | OCCC1CN(Cc2nc3ccccc3s2)CCN1CCc1ccccc1 (stereo not given) | inconclusive: 7.94 µM [inhibitor, partial curve, poor fit] | –
18 | COc1cc(/C=C2\C(=O)ON=C2c2ccccc2)cc(Br)c1O | inactive | –
19 | CCOc1cc(C(=O)NC)cc(Br)c1OCc1ccccc1 | – | inconclusive: -33.5% [inhibitor] [at 7.66 µM]
20 | CC(C)(C)c1ccc(C(=O)NC2(C(F)(F)F)NC(=O)N(CCc3ccccc3)C2=O)cc1 (stereo not given) | active: 12.6 µM | –
21 | CCOc1ccc(CN2CCN(Cc3cn(CC)nc3C)CC2CCO)cc1 (stereo not given) | inactive | –
22 | CCCCC[C@H]1CN(Cc2ccccc2)C(=O)[C@@H]1CC(=O)NCc1ccccc1 | active: 10 µM | –

Row | SMILES | Potency | activity change, negative = inhibition
23 | Cc1ccccc1OCC(=O)Nc1ccccc1N1CCOCC1 | inconclusive: 28.2 µM [inhibitor, single point] | –
24 | CCOc1cc(/C=C2/C(=N)N3N=C(C)SC3=NC2=O)ccc1OS(=O)(=O)c1ccc(C)cc1 | inconclusive: 11.2 µM [inhibitor, partial curve, poor fit] | –
25 | CC1CCCC(C)N1C(=O)c1cccc2c1-c1ccccc1/C2=N/O (stereo not given) | inconclusive: 20 µM [inhibitor, single point] | –
26 | CC(C)(C)C(=O)NC(=S)NNC(=O)c1ccc(-c2ccccc2)cc1 | inconclusive: 11.2 µM [inhibitor, partial curve] | –
27 | COc1ccc(-c2cc(C(=O)N3CCN(c4ccccc4)CC3)c3ccccc3n2)cc1OC | inconclusive: 14.1 µM [inhibitor, single point] | –
28 | COC(=O)c1sccc1NC(=O)c1ccc(C(C)C)cc1 | inconclusive: 22.4 µM [inhibitor, single point] | –
29 | COCc1cc(C)nc(NCCc2ccccc2)c1C#N | inconclusive: 31.6 µM [inhibitor, single point] | –
30 | Cc1cc2ncn(CC(C)C)c2cc1C | inconclusive: 11.2 µM [inhibitor, partial curve, poor fit] | –
31 | Cc1ccc(Cl)cc1N1CCN(C(=O)Cn2c(-c3cccs3)cc3cc(F)ccc32)CC1 | inconclusive: 3.98 µM [inhibitor, partial curve] | –
32 | Cc1cc(/C=N\NC(=O)CC(=O)NC2CCCCC2)c(C)n1-c1ccc(Cl)cc1 | inactive | –
33 | COC(=O)c1[nH]c2ccc(C)cc2c1NC(=O)NC1CCCCC1 | inactive | –
34 | COc1ccc(COC(=O)C2=C(C)NC(=O)NC2c2ccccc2)cc1 (stereo not given) | inactive | –
35 | Cc1cc2c3c([nH]c2cc1S(=O)(=O)NCc1ccc(CN2CCCCCC2)o1)CC(C)(C)CC3=O | inconclusive: 22.4 µM [inhibitor, single point] | –
36 | CCCCCNc1nc(N2CCCC2)c2c(c1C#N)CCN(C)C2 | inconclusive: 11.2 µM [inhibitor, partial curve, poor fit] | –
37 | Cc1cccc(N(Cc2ccccc2)C(=O)c2ccccc2S(C)(=O)=O)c1 | inconclusive: 3.16 µM [inhibitor, partial curve, poor fit] | –
38 | O=C(Nc1cccc(C(F)(F)F)c1)N1CCC(c2nc(-c3ccc(F)cc3)no2)CC1 | inconclusive: 12.6 µM [inhibitor, single point] | –
39 | FC(F)(F)c1cccc(-c2cncc(N3CCN(CCN4CCCC4)CC3)n2)c1 | inconclusive: 5.62 µM [inhibitor, full curve, poor fit] | –
40 | Cc1ccc(N(C)S(=O)(=O)c2cccc(C(=O)Nc3ccc(N4CCOCC4)cc3)c2)cc1 | inconclusive: 28.2 µM [inhibitor, single point] | –
41 | Cc1ccccc1NC(=O)CSc1nc(-c2ccccc2)cn1-c1ccccc1F | inconclusive: 20 µM [inhibitor, single point] | –
42 | COc1ccc(C(=O)CC(Sc2ccccc2N)c2ccc(OC)cc2)cc1 (stereo not given) | inconclusive: 14.1 µM [inhibitor, single point] | –
43 | N=c1c2c3c(sc2nc2n1CCCCC2)CCCCC3 | inconclusive: 10 µM [inhibitor, partial curve, poor fit] | –
44 | O=C(NCC1CCN(c2ccc(S(=O)(=O)N3CCOCC3)cc2)CC1)c1ccc(Cl)cc1 | inconclusive: 25.1 µM [inhibitor, single point] | –

Row | SMILES | Potency | activity change, negative = inhibition
45 | COc1cc2c(cc1NC(=O)c1ccccc1-c1ccccc1C(=O)O)-c1ccccc1C2 | inconclusive: 31.6 µM [inhibitor, partial curve, poor fit] | –
46 | Cc1ccccc1OCCN1C(=O)NC2(CCCc3ccccc32)C1=O (stereo not given) | inconclusive: 12.6 µM [inhibitor, partial curve, poor fit] | –
47 | COc1cccc(-n2c(-c3ccccc3F)nc3c(cnn3-c3ccc(C)cc3)c2=O)c1 | inconclusive: 7.08 µM [inhibitor, partial curve, poor fit] | –
48 | COc1ccc(NC(=O)c2sc3nc4c(cc3c2N)CCCCCC4)cc1 | inconclusive: 5.01 µM [inhibitor, full curve, poor fit] | –
49 | Cc1cc(-c2nc3ccccc3s2)ccc1N | active: 7.94 µM | –
50 | O=Cc1c(Sc2ccccc2)nc2ccccn2c1=O | inconclusive: 28.2 µM [inhibitor, single point] | –
51 | CCn1nc(C)c(/C=N/NC(=S)Nc2ccc(Cl)cc2Cl)c1C | active: 3.98 µM | –
52 | O=C(Nc1ccc(F)c(Cl)c1)c1csc([C@@H]2O[C@H](CO)[C@H](O)[C@H](O)[C@H]2O)n1 | inactive | –
53 | Cc1cc2nc(C3CCCCC3)c(Cc3cccc(Cl)c3)n2c(C)c1Br | inconclusive: 12.6 µM [inhibitor, single point] | –
54 | Cc1ccc(O)c(/C=N/NC(=O)c2[nH]ncc2Br)c1 | inactive | –
55 | Cc1cc(C)c(NC(=O)CSc2nccn2-c2cccc(Cl)c2)c(C)c1 | inconclusive: 28.2 µM [inhibitor, single point] | –
56 | CCCCN(C)C(=O)C1CCN(C/C(C)=C/c2ccccc2)CC1 | inconclusive: 10 µM [inhibitor, partial curve, poor fit] | –
57 | CCOc1cc(S(=O)(=O)NC2CCCCCC2)ccc1F | inconclusive: 15.8 µM [inhibitor, partial curve, poor fit] | –
58 | COc1ccc(C)cc1NS(=O)(=O)c1ccc2c3c(cccc13)C(=O)N2 | inconclusive: 28.2 µM [inhibitor, single point] | –
59 | COc1cc(S(=O)(=O)N(Cc2ccccc2)Cc2ccccn2)ccc1-n1cnnn1 | inactive | –
60 | CC1CCCN(C(=S)Nc2ccc(S(=O)(=O)N3CCCCC3)cc2)C1 (stereo not given) | inconclusive: 8.91 µM [inhibitor, partial curve, poor fit] | –
61 | COc1ccc(C2CC(c3ccc(Br)cc3)=NN2C(=S)Nc2ccccc2)cc1 (stereo not given) | inconclusive: 2.82 µM [inhibitor, full curve] | –
62 | OCC1(Cc2ccccc2)CCN(Cc2cccc(F)c2F)CC1 | inconclusive: 11.2 µM [inhibitor, partial curve, poor fit] | –
63 | CN(C(=O)CSc1cc(C(=O)c2nccn2C)c2ccccc2n1)c1ccccc1 | active: 10 µM | –
64 | CSCCC(NC(=O)c1ccccc1)C(=O)N1CCN(Cc2ccc(Cl)cc2)CC1 (stereo not given) | inconclusive: 22.4 µM [inhibitor, single point] | –
65 | Cc1cccc(CC(=O)NCCn2c(C)cc3ccccc32)c1 | inconclusive: 28.2 µM [inhibitor, single point] | –
